# Results as given in paper PMC12040169 (PLOS Biology, 2025).
# The other results are listed elsewhere or left out.
# System: T1, C. trachomatis L2/434/Bu expressing GFP (CTL2-GFP)
# T1 construct: L2/434/Bu GFP intracellular growth in HeLa cells
# Design: species or system HeLa; C. trachomatis total inclusion area by high-content imaging, normalised to DMSO
# Conditions: total inclusion area; 28.5 h, 10 µM; inhibitor
# Procedure, shortened: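 High-content imaging followed the bulk GFP/resorufin measurement: fixed, Hoechst-stained cells were scored for GFP inclusions and host nuclei per well. Total inclusion area and count served as growth proxies, nuclei number as the viability proxy. MIC calculation matched the bulk assay.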
row,SMILES,% of control remaining
1,CN1CCC(N2CCN(C(=O)c3cncc(-c4[nH]nnc4-c4ccccc4)c3)CC2)CC1 [CBK160327],86.5006
2,CN(C)C(=O)c1ccc(Cn2nc(C(=O)NCCOc3ccccc3)c3ccccc32)cc1 [CBK047700],104.089
3,O=C(O)CCC(C(=O)O)N1C(=O)c2c(Cl)c(Cl)c(Cl)c(Cl)c2C1=O (stereo not shown) [CBK264308],116.996
4,Cc1ccc(C(=O)Nc2cccc(-c3cn4cccnc4n3)c2)cc1 [CBK287503],107.81
5,CC(O)(CC(=O)O)C12CC3CC(CC(C3)C1)C2 (stereo not shown) [CBK261245],93.75
6,COc1ccc2c(CN(C)Cc3cc(C)[nH]n3)cn(C)c2c1 [CBK281734],100.428
7,CCOc1ccccc1NC(=O)CNS(=O)(=O)c1ccccc1 [CBK265860],134.728
8,CCCCNC(=S)NC1CC[C@@]2(c3ccc(Br)cc3)CCN(C)[C@H]2C1 (stereo partly shown) [CBK003781],101.783
9,COCCNC(=O)Cn1nnc(-c2ccc(OC)cc2)n1 [CBK069349],109.889
10,Cc1nnnn1CCC(=O)NCCc1cn2ccccc2n1 [CBK306816],44.7178
11,C=C(C)CNC(=O)c1cc(-c2cccc(NC(C)=O)c2)cnc1N(C)S(C)(=O)=O [CBK076622],102.052
12,Cc1ccc(NC(=O)Cc2ccncc2)c(C)n1 [CBK200385],33.3964
13,C/C(=C(/C(=O)N(N)c1nc2ccccc2s1)C(=O)C(F)(F)F)N1CCC(C(N)=O)(N2CCCCC2)CC1 [CBK265787],74.1057
14,O=C(CSc1nnc(-c2ccco2)o1)N1CCN(CC(=O)N2CCCC2)CC1 [CBK295136],107.109
15,Cc1ncccc1C(=O)N1CCN(Cc2ccccc2)CC1 [CBK200171],112.17
16,COc1cc2c(cc1OC)CN(Cc1csc(C)n1)CC2 [CBK126443],95.7915
17,OC(CNc1nccnc1-c1cccc(C(F)(F)F)c1)COc1ccccc1 (stereo not shown) [CBK037010],131.165
18,O=C1NCCN/C1=C\C(=O)c1ccc(Br)cc1 [CBK261427],89.8282
19,O=C(Nc1sc2c(c1C(=O)N1CCOCC1)CCCCC2)c1cccs1 [CBK307099],96.1949
20,O=C(CSc1ccc(-n2ccnc2)nn1)Nc1cccnc1 [CBK287635],89.9701
21,Nc1ncnc(Nc2cccc(F)c2)n1 [CBK017447],95.2133
22,CCOC(=O)CN1C(=O)S/C(=C/c2cc(C)n(-c3ccc(S(N)(=O)=O)cc3)c2C)C1=O [CBK265410],104.39
23,CC(=O)N1C[C@@H]2OCC(=O)N(Cc3ccccn3)[C@@H]2C1 [CBK289245],130.528
24,c1ccc2[nH]c(SCCCCCSc3nc4ccccc4[nH]3)nc2c1 [CBK025418],91.2805
25,Cc1nc(N2CCOCC2)nc(Nc2ccc(Cl)cc2)c1[N+](=O)[O-] [CBK264685],98.9149
26,CC(C)(C)OC(=O)NCc1ccc(CNCc2ccc(-c3ccccc3)cc2)cc1 [CBK056706],56.9843
27,COCCN1C(=O)C2(CC(=O)N(C)C2=O)c2ccccc21 (stereo not shown) [CBK075387],114.899

row,SMILES,% of control remaining
1,NCc1ccc(CN(Cc2ccc(-c3ccccc3)cc2)C(=O)Nc2ccccc2C(F)(F)F)cc1 [CBK046116C],72.1018
2,O=C1NC/C=C/CC2(CCN(Cc3ccccc3)CC2)C(=O)NCCOc2ccccc21 [CBK292097],95.073
3,CC1(C)Cc2c(sc(NC(=O)Cc3ccccc3)c2C(=O)O)CO1 [CBK264354],106.555
4,O=C(Nc1nnc(COc2ccccc2)s1)c1cccc2ccccc12 [CBK300487],122.85
5,CC(C)CCNCc1ccc(-c2cn(CC(=O)NCCc3ccccc3)nn2)cc1 [CBK164740],77.8231
6,COc1ccc([C@@H]2CCN(C(=O)Cc3ccccc3F)C[C@H]2O)cc1 [CBK283756],79.7558
7,Cc1ccc(S(=O)(=O)N(CC(=O)O)c2ccc(C)c(C)c2)cc1 [CBK263778],110.761
8,COc1ccc(C)cc1S(=O)(=O)N(CCO)c1cc(N2CCNCC2)c2occc2c1 [CBK067894C],78.5023
9,O=S(=O)(Nc1cc(C(F)(F)F)ccc1N1CCOCC1)c1ccc(-c2ccccn2)s1 [CBK062557],78.34
10,COc1ccc(CCN[C@H]2CCC[C@@H]2O)cc1OC [CBK005354G],32.1829
11,Cn1nnnc1SCCNC(=O)Nc1cccc(N2CCOC2=O)c1 [CBK306593],76.4029
12,CNC(=O)CN(CCO)Cc1cc(Br)ccc1F [CBK304941],59.9815
13,CC(C)NS(=O)(=O)c1ccc(NC(=O)Cc2cccc3ccccc23)cc1 [CBK268102],106.115
14,COC(=O)CNC(c1ccccc1)c1cc(Br)ccc1N (stereo not shown) [CBK019222],91.9543
15,c1ccc(CN2CCN(Cc3ccccc3)C2c2cccnc2)cc1 [CBK260885],111.969
16,O=C(OCC=C=CSc1ccc([N+](=O)[O-])cc1)c1ccc(F)cc1 [CBK265650],114.685
17,Cc1ncc([N+](=O)[O-])n1CCOC(=O)NC(N1CCOCC1)C(Cl)(Cl)Cl (stereo not shown) [CBK261299],90.8087
18,CC(C)(CO)CCCn1cncc1-c1cnn(-c2ccc(F)cc2)c1 [CBK281466],80.8211
19,Cn1c(=O)c2cnc(-c3ccccc3Cl)nc2n(C)c1=O [CBK291219],92.1641
20,O=C(Cn1c(=O)n(Cc2cccnc2)c(=O)c2ncccc21)NC1CCCC1 [CBK287666],89.1123
21,Cc1csc(Sc2nccnc2N2CCCC2)n1 [CBK093735],95.5842
22,CN(C(=O)C1CCC1)c1nc2c(s1)CCc1c-2cnn1C [CBK281931],70.1973
23,CSCCN1CCC(Oc2nccnc2OCCN2C(=O)CCC2=O)CC1 [CBK084351],87.8098
24,Cc1ccc(/C=N/NC(=O)C(C)Oc2ccccc2Br)o1 (stereo not shown) [CBK262226],73.6314
25,O=c1nc(O)c(I)cn1C1OC(CO)C(O)C1O (stereo not shown) [CBK015625],69.7988
26,CC(=O)N1CCc2cc(C(=O)N[C@@H](Cc3ccccc3)C(=O)O)ccc21 [CBK298303],97.1217
27,COc1cccc(CNn2cnnc2S)c1OCc1ccccc1 [CBK265781],112.947

row,SMILES,% of control remaining
1,Cc1ccccc1-c1csc2c(=O)[nH]c(N3CCC4(CC3)OCCO4)nc12 [CBK291141],91.3384
2,CC(=O)Nc1cccc(CN2CCCC2CN2CCCC2CO)c1 (stereo not shown) [CBK305163],105.93
3,O=C(Cc1ccc(Cl)cc1)NC(=S)Nc1ccccc1O [CBK263905],117.845
4,CN(C)C(=O)CN1CCCC2(CCN(C(=O)c3cc(F)c(F)cc3F)C2)C1 (stereo not shown) [CBK132024],111.422
5,Cc1nc2ccc(C(=O)N3CCC(O)(c4ccccc4C)CC3)cc2[nH]1 [CBK283300],84.5449
6,Cc1cc(C(=O)Nc2cc(F)c(N3CCCC3)c(F)c2)c(C)n1C1CC1 [CBK306226],33.9267
7,CN(Cc1cccc(Oc2ccccc2)c1)Cc1cccc2ccccc12 [CBK261857],92.8537
8,C/C(CCc1ccccc1)=N\NC(=O)c1ccc(CN2CCOCC2)cc1 [CBK262752],94.9208
9,O=C(N/N=C/c1ccc(O)cc1)c1cc[n+](Cc2ccccc2)cc1 [CBK262047C],102.125
10,Cc1ccc(C)c(S(=O)(=O)Nc2ccc(O)c(Sc3nc[nH]n3)c2)c1 [CBK266894],113.074
11,Cc1[nH]c(=O)[nH]c(=O)c1CCC(=O)OCc1nccn1Cc1ccccc1 [CBK297939],97.072
12,O=C(NC(c1ccccc1)c1ccsc1)C1CCN(C/C=C/c2ccccc2)CC1 (stereo not shown) [CBK148449],94.1456
13,O=C(CCCN1CCN(CCCC(=O)c2ccc(F)cc2)CC1)c1ccc(F)cc1 [CBK025317C],99.6791
14,CC(C)(C)SCCOC(=O)C1CC(=O)N(Cc2ccccn2)C1 (stereo not shown) [CBK303991],57.5035
15,c1ccc(CCN2CCC(Oc3nccnc3OCc3cccnc3)CC2)nc1 [CBK083180],91.747
16,COC(=O)c1ccccc1NC(=O)CN(c1cccc(Cl)c1Cl)S(C)(=O)=O [CBK264612],94.1834
17,Cc1ccc(-c2noc(-c3cccnc3N3CCC(C(=O)O)CC3)n2)cc1 [CBK287260],127.092
18,CC(=O)Nc1cccc(-c2nccnc2NCC2CC2)c1 [CBK037962],116.381
19,COc1ccc(CN(C)c2c(C)nc3c(OCCCN(C)S(C)(=O)=O)cccn23)cc1 [CBK147468],97.8063
20,C=Cn1ncc(CN(Cc2ccc(C)o2)CC2CCCO2)c1C (stereo not shown) [CBK283292],98.4459
21,Cc1ccc2nsnc2c1NC(=O)CN1CCCCC1 [CBK269330],94.1091
22,N#C/C(=C\c1cn(-c2ccccc2)nc1-c1cccc(S(=O)(=O)N2CCCCCC2)c1)c1nc2ccccc2c(=O)[nH]1 [CBK266347],75.4816
23,COC(=O)N1CCN(C(=O)c2cc(C(C)C)n3ncnc3n2)CC1 [CBK306509],57.5875
24,CN(C)Cc1cn([C@H]2CO[C@H]3[C@@H]2OC[C@@H]3NC(=O)NC2CCCCC2)nn1 [CBK289493],106.181
25,CCc1nnc(SCC(=O)N2c3ccccc3Sc3ccccc32)[nH]1 [CBK268687],107.794
